# From PubChem BioAssay AID504832 (National Center for Advancing Translational Sciences (NCATS), 2011)
# In all, about 310,000 compounds went through this assay and about 18,000 (5.8%) were called active. This list was built around the results that the source calls inconclusive (neither active nor inactive); the mix of calls is not that of the screen. Calls come from the whole dose curve; as a rule, active = well fitted inhibition curve with a large enough effect; inconclusive = small, poorly fitted or top-dose-only effect, or another doubt; inactive = no such curve, though single readings can be large or run the other way. Potencies of inconclusive entries are left out as doubtful fits.
# Experiment: Primary qHTS for delayed death inhibitors of the malarial parasite plastid, 48 hour incubation
# Conditions: P. falciparum luciferase growth in erythrocytes; series mostly up to 28.7 µM; activity change, negative = inhibition: at the top concentration
# How it was run: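 A one-generation exposure of luciferase-tagged malaria parasites in RPMI 1640/Albumax erythrocyte culture, 37 C and 5% CO2. Inhibition is inferred from decreased luminescence after adding detection reagent.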
# % is set by controls: 0 for no effect and ±100 for the full control effect; potency is the fitted concentration of half-maximal effect; tags give direction and shape of the fitted curve.
Compound,Potency,"activity change, negative = inhibition"
CC(C)Cn1c(N2CCN(C(=O)c3cccs3)CC2)nc2ccccc21,"inconclusive [inhibitor, single point]",
OCCNCCNCc1ccccc1OCc1ccccc1,"inconclusive [inhibitor, partial curve]",
CC(NS(=O)(=O)c1ccc2[nH]c(=O)c(=O)[nH]c2c1)C(=O)O (stereo not drawn),,inactive: 21.4%
CC(C)[C@H](NC(=O)c1ccccc1)C(=O)Nc1ccc2c(c1)OCO2,"inconclusive [inhibitor, partial curve, poor fit]",
CCN(CC(=O)Nc1ccc(NC(C)=O)cc1)CC(=O)Nc1ccc(F)c(Cl)c1,,inactive: 7.01%
C/C(=N\NS(=O)(=O)c1ccc(Br)cc1)c1ccncc1,"inconclusive [inhibitor, partial curve, poor fit]",
Cc1ccc(N2C(=O)C3N=NN(CC(=O)N4N=C(c5ccccc5)CC4c4ccccc4)C3C2=O)cc1 (stereo not drawn),active: 11.7 µM,
CC1CCCCN1CCCNC(=O)CCCN1C(=O)c2cccnc2Sc2ccccc21 (stereo not drawn),,inactive: 11.8%
CCc1ccc(CNCc2ccc(OCC(O)CN(C)Cc3ccccc3)cc2)nc1 (stereo not drawn),"inconclusive [inhibitor, partial curve, poor fit]",
COc1ccc(C2NC(=O)N(C)C3=C2C(=O)CC(C)(C)C3)cc1OC (stereo not drawn),,inactive: 25.3%
CCCN(CC(=O)Nc1ccccc1C)C(=O)c1oc2ccc(OCC)cc2c1C,active: 2.94 µM,
Cc1cc(C)nc(NC(=NCCc2c[nH]c3ccccc23)NC(=O)Nc2cccc([N+](=O)[O-])c2)n1,active: 3.29 µM,
CN(Cc1ccccc1NCC(=O)Nc1ccccc1C#N)C1CCCCC1,"inconclusive [inhibitor, single point]",
CCOc1ccc(Cl)cc1/C=N/NC(=O)CNC(=O)c1ccccc1,,inactive: -4.32%
N/C(=N\N=C\c1ccc([N+](=O)[O-])cc1)c1nonc1N,,inactive: 104%
CCOC(=O)c1cc(CC)sc1NC(=O)C(c1ccccc1)c1ccccc1,"inconclusive [inhibitor, partial curve]",
O=C(N/N=C/c1cc(Cl)cc([N+](=O)[O-])c1O)c1cc(-c2ccccn2)nc2ccccc12,"inconclusive [inhibitor, single point]",
O=NC1=C(c2c(O)[nH]c3ccccc23)CCCC1,,inactive: -2.03%
O=C(c1cccs1)N1CCN=C1SCc1ccccc1,"inconclusive [inhibitor, single point]",
O=[N+]([O-])c1ccc(Cl)c(-c2ccc(/C=N/c3c(-c4ccco4)nc4ccccn34)o2)c1,,inactive: 25.3%
CCc1nnc(NC(=O)C(CC)c2ccccc2)s1 (stereo not drawn),,inactive: -5.92%
O=C(Nc1ccc(C(=O)O)cc1)/C(=C\c1ccco1)NC(=O)c1ccccc1Cl,,inactive: 3.53%
Cc1ccc(OCCC(=O)OCC(=O)N2CCN(S(=O)(=O)c3ccc(Cl)cc3)CC2)cc1,,inactive: 71.4%
O=C(Nc1ccccn1)c1cc(-c2cccc(Cl)c2)nc2ccccc12,active: 3.29 µM,
S=C1CCSc2ccc(Cl)cc2N1,"inconclusive [inhibitor, partial curve, poor fit]",

Compound,Potency,"activity change, negative = inhibition"
C=CCn1c(SCC(=O)Nc2sccc2C(N)=O)nc2ccccc2c1=O,"inconclusive [inhibitor, full curve]",
N=c1c[n+](CC23CC4CC(CC(C4)C2)C3)[n-]o1,"inconclusive [inhibitor, single point]",
O=C(Nc1ccccc1)Nc1csc2ccccc12,"inconclusive [inhibitor, single point]",
COc1ccc(C(=O)CCC(=O)Nc2cccnc2)c(OC)c1,,inactive: -5.35%
CCOc1ccc(S(=O)(=O)NCCC(=O)N2CCCC(C)C2)cc1 (stereo not drawn),,inactive: 13%
COc1cc(C(CCN2CCCC2)c2c(OC)cc(OC)c3c(C)cc(=O)oc23)cc(OC)c1OC (stereo not drawn),active: 7.38 µM,
O=C(NCC1CCCO1)c1ccccn1 (stereo not drawn),,inactive: -8.89%
CC(C)(C)c1ccc(OCC(=O)N2CCN(c3ccccn3)CC2)cc1,"inconclusive [inhibitor, single point]",
CCn1c(SCC(=O)NNC(=O)Cc2ccccc2)nnc1-c1ccncc1,active: 1.47 µM,
CCC(C)(C)NC(=O)c1cc([N+](=O)[O-])ccc1N1CCOCC1,,inactive: 13.4%
CCOC(=O)CN(C(=O)CSc1nnc2c(n1)[nH]c1ccc(F)cc12)c1ccccc1,active: 13.1 µM,
COC(=O)CSc1nnc2c3c4c(sc3nc(-n3nc(C)cc3C)n12)COC(C)(C)C4,"inconclusive [inhibitor, partial curve]",
COCCn1c(=NC(=O)c2ccc(S(=O)(=O)N3CCc4ccccc4C3)cc2)sc2cc(OC)ccc21,"inconclusive [inhibitor, partial curve, poor fit]",
COC(=O)c1ccc(NC(=O)C(=O)c2c[nH]c3ccccc23)cc1,,inactive: 46%
CC(Oc1ccc2c(-c3ccccc3)cc(=O)oc2c1)C(=O)N[C@H](Cc1c[nH]c2ccccc12)C(=O)O (stereo partly drawn),"inconclusive [inhibitor, single point]",
CCOc1ccc(NC(=O)CC2C(=O)N(c3ccc(OC)cc3)C(=O)N2CCc2ccc(OC)c(OC)c2)cc1 (stereo not drawn),"inconclusive [inhibitor, single point]",
CCn1cc(C(=O)NCCc2ccccc2)c(=O)c2cc(S(=O)(=O)N(C)C)ccc21,"inconclusive [inhibitor, partial curve, poor fit]",
CCOC(=O)c1sc(NC(=O)C(C)Sc2nc(N)cc(=O)[nH]2)nc1C (stereo not drawn),"inconclusive [inhibitor, single point]",
Cc1ccccc1NC(=O)CSc1n[nH]c(-c2ccccn2)n1,"inconclusive [inhibitor, single point]",
COc1ccc(NC(=O)c2ccc3c(c2)n(C)c(=O)n3C)cc1,,inactive: 16.2%
CCOc1cccc2sc(N(CCN(CC)CC)C(=O)c3ccc(S(=O)(=O)N4CCCCC4)cc3)nc12,"inconclusive [inhibitor, single point]",
CC(C)(C)c1ccccc1NC(=O)c1ccc(-n2cncn2)c([N+](=O)[O-])c1,,inactive: -5.86%
CN(C)CCCNc1cc(O)c2ncccc2c1,active: 4.15 µM,
O=C(CSc1nnc2ccccn12)Nc1ccccc1C(=O)NC1CC1,"inconclusive [inhibitor, full curve, poor fit]",
CCOC(=O)c1sc2nc3c(SCCC(=O)O)cc(C(=O)c4cc(OC)ccc4O)cn3c(=O)c2c1C,,inactive: -9.19% [at 5.75 µM]

Compound,Potency,"activity change, negative = inhibition"
Clc1ccc(CO/N=C/c2cccs2)cc1,"inconclusive [inhibitor, partial curve, poor fit]",
O=c1c(Cl)c(N2CCC3(CC2)OCCO3)cnn1C12CC3CC(CC(C3)C1)C2,"inconclusive [inhibitor, partial curve, poor fit]",
CCN1CCN(c2ccc(S(=O)(=O)N3CCCCC3)cc2NC(=O)Cc2ccc(Cl)c(Cl)c2)CC1,active: 10.4 µM,
Cc1ccc(OCc2ccc(C(=O)N3CCCC3)o2)cc1C,"inconclusive [inhibitor, single point]",
O=C(O)CC(NS(=O)(=O)c1cccc2nsnc12)c1ccc(F)cc1 (stereo not drawn),"inconclusive [inhibitor, partial curve, poor fit]",
COCCn1ccc2c(OCC(=O)Nc3ccccc3OC)cccc2c1=O,"inconclusive [inhibitor, single point]",
Cc1ccc(NCc2nnc(SC(C)C(=O)N/N=C/c3ccc(C)o3)n2-c2ccccc2)cc1 (stereo not drawn),,inactive: 16.7%
CCCCC(=O)NCc1ccccc1Cl,,inactive: 42.8%
COc1ccc(C(=O)NC(C(=O)N2CCN(c3ccccc3O)CC2)C(C)C)cc1 (stereo not drawn),"inconclusive [inhibitor, single point]",
O=C(Nc1nnc(CCc2ccccc2)s1)c1cccs1,,inactive: 31.3%
C=C(C)COc1ccc(-c2ncncc2-c2ccccc2)c(O)c1,active: 9.28 µM,
C=CCN1C(=O)c2ccc(C(=O)N(C)CC(=O)Nc3ccccc3C(F)(F)F)cc2C1=O,,inactive: 12.6%
CCCSc1ccc([C@@H]2[C@@H]3C(=O)N(C)C(=O)[C@@H]3[C@]3(C(=O)OC)CCCCN23)cc1OC,active: 13.1 µM,
C/C(=N\NC(=S)Nc1ccc(C(C)C)cc1)c1ccc2c(c1)OCO2,,inactive: -6.53%
N#Cc1ccc(-c2cccs2)nc1SCc1cccnc1,"inconclusive [inhibitor, single point]",
CCOC(=O)Nc1nnc(-c2cccc(OC)c2)s1,,inactive: -23.7%
CCN(CC)c1cc(C)c2cc(NC(=O)c3ccccc3F)ccc2n1,active: 10.4 µM,
O=C(O)c1ccccc1C(=O)c1ccc(N2CCOCC2)c([N+](=O)[O-])c1,,inactive: 4.98%
COc1ccccc1N1CCN(C(=O)NC23CC4CC(CC(C4)C2)C3)CC1,"inconclusive [inhibitor, partial curve]",
CCn1c(C)c(C)c2cc(C(=O)Nc3cccc(Cl)c3)ccc21,"inconclusive [inhibitor, partial curve, poor fit]",
CCOC(=O)c1c(NC(=O)CN2C(=O)NC3(CCCC3)C2=O)sc(C)c1CC,"inconclusive [inhibitor, single point]",
COc1ccc(NS(=O)(=O)c2csc(C(N)=O)c2)cc1,active: 7.38 µM,
O=C(c1ccco1)N1CCN(C(=O)c2cnn3c(C(F)(F)F)cc(-c4cccs4)nc23)CC1,"inconclusive [inhibitor, single point]",
